Source: the supplement of paper PMC11876631
± gives the standard deviation of the averaged measurements. Laboratory Escherichia coli strains with one amino-acid change in an essential protein, pooled on minimal glucose agar with carbenicillin or gentamicin at twice the control MIC (plus kanamycin and chloramphenicol for the plasmids), 48 h. Fold change of barcode share against drug-free plates; higher = less susceptible. Active = above 20 in both replicates (the paper's putatively resistant). '<' = one read or none on drug, '>' = one read or none on a drug-free plate. Shares are relative, so most strains fall below 1 when a few take over. Listed are strains with at least 15 reads on both drug-free plates, and hits; most hits rest on fewer reference reads. Replicate rank correlation about 0.5. Edits are read from barcodes.

Biological target: Escherichia coli (laboratory strain)
Test: barcode share on antibiotic plates over drug-free plates; higher = less susceptible
Experimental: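 A pool of E. coli strains, each edited to carry one amino-acid change in an essential protein, was grown for 48 h on minimal glucose agar with or without antibiotic; strain barcodes were sequenced; mean of two replicates.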

[1] = antibiotic: carbenicillin, 2× MIC (3.1 µg/mL)
[2] = antibiotic: gentamicin, 2× MIC (MIC 0.45 µg/mL)

| Protein | fold change of barcode share [1] | fold change of barcode share [2] |
| --- | --- | --- |
| proA L402Q (protein) MLEQMGIAAKQASYKLAQLSSREKNRVLEKIADELEAQSEIILNANAQDVADARANGLSEAMLDRLALTPARLKGIADDVRQVCNLADPVGQVIDGGVLDSGLRLERRRVPLGVIGVIYEARPNVTVDVASLCLKTGNAVILRGGKETCRTNAATVAVIQDALKSCGLPAGAVQAIDNPDRALVSEMLRMDKYIDMLIPRGGAGLHKLCREQSTIPVITGGIGVCHIYVDESVEIAEALKVIVNAKTQRPSTCNTVETLLVNKNIADSFLPALSKQMAESGVTLHADAAALAQLQAGPAKVVAVKAEEYDDEFLSLDLNVKIVSDLDDAIAHIREHGTQHSDAILTRDMRNAQRFVNEVDSSAVYVNASTRFTDGGQFGLGAEVAVSTQKLHARGPMGLEAQTTYKWIGIGDYTIRA | 0.339 ± 0.075 | 0.0129 ± 0.01 |
| proA L402P (protein) MLEQMGIAAKQASYKLAQLSSREKNRVLEKIADELEAQSEIILNANAQDVADARANGLSEAMLDRLALTPARLKGIADDVRQVCNLADPVGQVIDGGVLDSGLRLERRRVPLGVIGVIYEARPNVTVDVASLCLKTGNAVILRGGKETCRTNAATVAVIQDALKSCGLPAGAVQAIDNPDRALVSEMLRMDKYIDMLIPRGGAGLHKLCREQSTIPVITGGIGVCHIYVDESVEIAEALKVIVNAKTQRPSTCNTVETLLVNKNIADSFLPALSKQMAESGVTLHADAAALAQLQAGPAKVVAVKAEEYDDEFLSLDLNVKIVSDLDDAIAHIREHGTQHSDAILTRDMRNAQRFVNEVDSSAVYVNASTRFTDGGQFGLGAEVAVSTQKLHARGPMGLEAPTTYKWIGIGDYTIRA | 25.6 [active] | – |
| proB I313A (protein) MSDSQTLVVKLGTSVLTGGSRRLNRAHIVELVRQCAQLHAAGHRIVIVTSGAIAAGREHLGYPELPATIASKQLLAAVGQSRLIQLWEQLFSIYGIHVGQMLLTRADMEDRERFLNARDTLRALLDNNIVPVINENDAVATAEIKVGDNDNLSALAAILAGADKLLLLTDQKGLYTADPRSNPQAELIKDVYGIDDALRAIAGDSVSGLGTGGMSTKLQAADVACRAGIDTIIAAGSKPGVIGDVMEGISVGTLFHAQATPLENRKRWIFGAPPAGEITVDEGATAAILERGSSLLPKGIKSVTGNFSRGEVARICNLEGRDIAHGVSRYNSDALRRIAGHHSQEIDAILGYEYGPVAVHRDDMITR | 0.513 ± 0.052 | 0.013 ± 0.0094 |
| proB I45A (protein) MSDSQTLVVKLGTSVLTGGSRRLNRAHIVELVRQCAQLHAAGHRAVIVTSGAIAAGREHLGYPELPATIASKQLLAAVGQSRLIQLWEQLFSIYGIHVGQMLLTRADMEDRERFLNARDTLRALLDNNIVPVINENDAVATAEIKVGDNDNLSALAAILAGADKLLLLTDQKGLYTADPRSNPQAELIKDVYGIDDALRAIAGDSVSGLGTGGMSTKLQAADVACRAGIDTIIAAGSKPGVIGDVMEGISVGTLFHAQATPLENRKRWIFGAPPAGEITVDEGATAAILERGSSLLPKGIKSVTGNFSRGEVIRICNLEGRDIAHGVSRYNSDALRRIAGHHSQEIDAILGYEYGPVAVHRDDMITR | 0.604 ± 0.36 | < 0.0034 |
| proB I45P (protein) MSDSQTLVVKLGTSVLTGGSRRLNRAHIVELVRQCAQLHAAGHRPVIVTSGAIAAGREHLGYPELPATIASKQLLAAVGQSRLIQLWEQLFSIYGIHVGQMLLTRADMEDRERFLNARDTLRALLDNNIVPVINENDAVATAEIKVGDNDNLSALAAILAGADKLLLLTDQKGLYTADPRSNPQAELIKDVYGIDDALRAIAGDSVSGLGTGGMSTKLQAADVACRAGIDTIIAAGSKPGVIGDVMEGISVGTLFHAQATPLENRKRWIFGAPPAGEITVDEGATAAILERGSSLLPKGIKSVTGNFSRGEVIRICNLEGRDIAHGVSRYNSDALRRIAGHHSQEIDAILGYEYGPVAVHRDDMITR | 1.32 ± 1 | < 0.00556 |
| proB L168A (protein) MSDSQTLVVKLGTSVLTGGSRRLNRAHIVELVRQCAQLHAAGHRIVIVTSGAIAAGREHLGYPELPATIASKQLLAAVGQSRLIQLWEQLFSIYGIHVGQMLLTRADMEDRERFLNARDTLRALLDNNIVPVINENDAVATAEIKVGDNDNLSALAAILAGADKLLLATDQKGLYTADPRSNPQAELIKDVYGIDDALRAIAGDSVSGLGTGGMSTKLQAADVACRAGIDTIIAAGSKPGVIGDVMEGISVGTLFHAQATPLENRKRWIFGAPPAGEITVDEGATAAILERGSSLLPKGIKSVTGNFSRGEVIRICNLEGRDIAHGVSRYNSDALRRIAGHHSQEIDAILGYEYGPVAVHRDDMITR | 0.371 ± 0.072 | < 0.00917 |
| proB V46A (protein) MSDSQTLVVKLGTSVLTGGSRRLNRAHIVELVRQCAQLHAAGHRIAIVTSGAIAAGREHLGYPELPATIASKQLLAAVGQSRLIQLWEQLFSIYGIHVGQMLLTRADMEDRERFLNARDTLRALLDNNIVPVINENDAVATAEIKVGDNDNLSALAAILAGADKLLLLTDQKGLYTADPRSNPQAELIKDVYGIDDALRAIAGDSVSGLGTGGMSTKLQAADVACRAGIDTIIAAGSKPGVIGDVMEGISVGTLFHAQATPLENRKRWIFGAPPAGEITVDEGATAAILERGSSLLPKGIKSVTGNFSRGEVIRICNLEGRDIAHGVSRYNSDALRRIAGHHSQEIDAILGYEYGPVAVHRDDMITR | 0.722 ± 0.44 | < 0.00357 |
| proB F255A (protein) MSDSQTLVVKLGTSVLTGGSRRLNRAHIVELVRQCAQLHAAGHRIVIVTSGAIAAGREHLGYPELPATIASKQLLAAVGQSRLIQLWEQLFSIYGIHVGQMLLTRADMEDRERFLNARDTLRALLDNNIVPVINENDAVATAEIKVGDNDNLSALAAILAGADKLLLLTDQKGLYTADPRSNPQAELIKDVYGIDDALRAIAGDSVSGLGTGGMSTKLQAADVACRAGIDTIIAAGSKPGVIGDVMEGISVGTLAHAQATPLENRKRWIFGAPPAGEITVDEGATAAILERGSSLLPKGIKSVTGNFSRGEVIRICNLEGRDIAHGVSRYNSDALRRIAGHHSQEIDAILGYEYGPVAVHRDDMITR | 0.444 ± 0.16 | < 0.0119 |
| proB F255W (protein) MSDSQTLVVKLGTSVLTGGSRRLNRAHIVELVRQCAQLHAAGHRIVIVTSGAIAAGREHLGYPELPATIASKQLLAAVGQSRLIQLWEQLFSIYGIHVGQMLLTRADMEDRERFLNARDTLRALLDNNIVPVINENDAVATAEIKVGDNDNLSALAAILAGADKLLLLTDQKGLYTADPRSNPQAELIKDVYGIDDALRAIAGDSVSGLGTGGMSTKLQAADVACRAGIDTIIAAGSKPGVIGDVMEGISVGTLWHAQATPLENRKRWIFGAPPAGEITVDEGATAAILERGSSLLPKGIKSVTGNFSRGEVIRICNLEGRDIAHGVSRYNSDALRRIAGHHSQEIDAILGYEYGPVAVHRDDMITR | 0.48 ± 0.11 | < 0.00806 |
| proB I47A (protein) MSDSQTLVVKLGTSVLTGGSRRLNRAHIVELVRQCAQLHAAGHRIVAVTSGAIAAGREHLGYPELPATIASKQLLAAVGQSRLIQLWEQLFSIYGIHVGQMLLTRADMEDRERFLNARDTLRALLDNNIVPVINENDAVATAEIKVGDNDNLSALAAILAGADKLLLLTDQKGLYTADPRSNPQAELIKDVYGIDDALRAIAGDSVSGLGTGGMSTKLQAADVACRAGIDTIIAAGSKPGVIGDVMEGISVGTLFHAQATPLENRKRWIFGAPPAGEITVDEGATAAILERGSSLLPKGIKSVTGNFSRGEVIRICNLEGRDIAHGVSRYNSDALRRIAGHHSQEIDAILGYEYGPVAVHRDDMITR | 1.47 ± 1.2 | 0.0277 ± 0.011 |
| proB I47W (protein) MSDSQTLVVKLGTSVLTGGSRRLNRAHIVELVRQCAQLHAAGHRIVWVTSGAIAAGREHLGYPELPATIASKQLLAAVGQSRLIQLWEQLFSIYGIHVGQMLLTRADMEDRERFLNARDTLRALLDNNIVPVINENDAVATAEIKVGDNDNLSALAAILAGADKLLLLTDQKGLYTADPRSNPQAELIKDVYGIDDALRAIAGDSVSGLGTGGMSTKLQAADVACRAGIDTIIAAGSKPGVIGDVMEGISVGTLFHAQATPLENRKRWIFGAPPAGEITVDEGATAAILERGSSLLPKGIKSVTGNFSRGEVIRICNLEGRDIAHGVSRYNSDALRRIAGHHSQEIDAILGYEYGPVAVHRDDMITR | 1.99 ± 0.084 | 0.00419 ± 0.0024 |
| proB V130A (protein) MSDSQTLVVKLGTSVLTGGSRRLNRAHIVELVRQCAQLHAAGHRIVIVTSGAIAAGREHLGYPELPATIASKQLLAAVGQSRLIQLWEQLFSIYGIHVGQMLLTRADMEDRERFLNARDTLRALLDNNIAPVINENDAVATAEIKVGDNDNLSALAAILAGADKLLLLTDQKGLYTADPRSNPQAELIKDVYGIDDALRAIAGDSVSGLGTGGMSTKLQAADVACRAGIDTIIAAGSKPGVIGDVMEGISVGTLFHAQATPLENRKRWIFGAPPAGEITVDEGATAAILERGSSLLPKGIKSVTGNFSRGEVIRICNLEGRDIAHGVSRYNSDALRRIAGHHSQEIDAILGYEYGPVAVHRDDMITR | 0.51 ± 0.015 | < 0.0181 |
| proB V130Q (protein) MSDSQTLVVKLGTSVLTGGSRRLNRAHIVELVRQCAQLHAAGHRIVIVTSGAIAAGREHLGYPELPATIASKQLLAAVGQSRLIQLWEQLFSIYGIHVGQMLLTRADMEDRERFLNARDTLRALLDNNIQPVINENDAVATAEIKVGDNDNLSALAAILAGADKLLLLTDQKGLYTADPRSNPQAELIKDVYGIDDALRAIAGDSVSGLGTGGMSTKLQAADVACRAGIDTIIAAGSKPGVIGDVMEGISVGTLFHAQATPLENRKRWIFGAPPAGEITVDEGATAAILERGSSLLPKGIKSVTGNFSRGEVIRICNLEGRDIAHGVSRYNSDALRRIAGHHSQEIDAILGYEYGPVAVHRDDMITR | 0.427 ± 0.38 | – |
